About 300 (0.091%) of roughly 330,000 compounds were called active. Inconclusive means that the source gave no clear call. Such entries were picked first, then a sample of the others. The call rests on the fitted dose curve; in most records, active means well fitted inhibition curve with a large enough effect; inconclusive means small, poorly fitted or top-dose-only effect, or effect the other way, or another doubt; inactive means no such curve, though single readings can be large or run the other way. Potencies of inconclusive entries are left out as doubtful fits.
Each compound was assayed against Lysosomal acid glucosylceramidase (Homo sapiens) (UniProt P04062) (assay: qHTS Assay for Inhibitors and Activators of N370S glucocerebrosidase as a Potential Chaperone Treatment of Gaucher Disease). Details: N370S GC spleen homogenate, 4MU-glucoside fluorescence; activity change, negative = inhibition: at 59.4 µM (top of the series) unless noted.
Potency means the concentration at half of the fitted maximal effect.
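Wherever activity change, negative = inhibition is given: 0% = full enzyme activity and -100% = no enzyme basal.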

Compound	Potency	activity change, negative = inhibition
Cc1ccccc1CNC(=O)c1ccc2ccccc2n1	inconclusive [activator, partial curve]	–
CCc1c(C)nc2ncnn2c1N1CCC(C(=O)NCc2cccs2)CC1	inconclusive [activator, partial curve]	–
CN(C)C(=O)c1ccc(-c2cncnc2Nc2ccc(F)cc2)cc1	inconclusive [inhibitor, single point]	–
C[C@@H]1NC(=O)c2cc([N+](=O)[O-])cc(I)c2NCCCC[C@@H](C(N)=O)NC(=O)[C@H](CCC(=O)O)NC1=O	inconclusive [inhibitor, partial curve]	–
CC(C)C[C@H](NC(=O)[C@H](C)NC(=O)CNC(=O)[C@H](CCCCN)NC(=O)[C@H](CCCN=C(N)N)NC(=O)[C@H](C)NC(=O)[C@H](Cc1ccccc1)NC(=O)[C@@H](N)CCCN=C(N)N)C(=O)N[C@@H](CCCN=C(N)N)C(=O)N[C@@H](CCC(N)=O)C(=O)N[C@@H](CCCCN)C(=O)N[C@@H](CC(N)=O)C(=O)N[C@H](C(N)=O)C(C)C	–	inactive: -0.631%
COc1ccc(OC)c(N=c2oc3cc(O)ccc3cc2C(N)=O)c1	inconclusive [activator, partial curve]	–
CC(Nc1ccccc1)c1cc(Cl)ccc1O (configuration not stated)	–	inactive: 0.528%
O=C(CNC(=O)c1ccco1)OCc1c(F)cccc1Cl	inconclusive [inhibitor, single point]	–
CCOc1ccc(-c2n[nH]c(C)c2Oc2ccc(OC)cc2)c(O)c1	inconclusive [activator, full curve]	–
N#CCCN(Cc1ccncc1)C(=S)NC1CC2C=CC1C2 (configuration not stated)	inconclusive [inhibitor, partial curve]	–
NC(=O)c1nsc(C(=O)N(c2cccc(F)c2)C(C(=O)NCC2CCCO2)c2ccc3ncccc3c2)c1N (configuration not stated)	inconclusive [activator, partial curve]	–
O=C(N/N=C(\c1ccccc1)c1ccccn1)c1ccccc1Cl	inconclusive [activator, single point]	–
Cc1cccc(C2=NN(c3ccc(Br)cc3)[C@@H](C(=O)N3CCOC3=O)[C@@H]2c2ccc(F)cc2)c1	inconclusive [activator, single point]	–
COc1ccc(-c2ccc3nnc(SCC(N)=O)n3n2)cc1	–	inactive: 1.53%
COc1ccc2[nH]cc(/C=N/NS(=O)(=O)c3ccc(C)cc3)c2c1	–	inactive: 2.3%
CCOc1ccc(-c2nc(C#N)c(NC3CC3)o2)cc1	–	inactive: 6.11%
COC(=O)CCCNC(=O)c1ccc(OS(=O)(=O)c2cc([N+](=O)[O-])ccc2C)cc1	inconclusive [inhibitor, full curve, poor fit]	–
N/N=C(\c1ccccc1)C12CN3CN(CN(C3)C1)C2	–	inconclusive: 32.2% [activator]
O=C(Nc1ccc2c(c1)OCO2)Nc1ccccn1	inconclusive [activator, full curve]	–
O=C(NC12CC3CC(CC(C3)C1)C2)c1cccc(OC(F)F)c1	inconclusive [activator, partial curve]	–
Clc1ccc(SCCCCN2CCNCC2)cc1	–	inconclusive: 36.3% [activator]
N#Cc1cc2c(N)c(C(=O)Nc3ccccc3)sc2nc1N	–	inactive: -2.94%
c1ccc(-c2ccnc3nc(-n4cccc4)nn23)cc1	inconclusive [activator, single point]	–

Compound	Potency	activity change, negative = inhibition
COc1cc(/C=N/n2c(-c3ccccc3)n[nH]c2=S)cc(OC)c1O	–	inactive: -11.1%
Cc1ccc(NC(CC(=O)c2ccccc2)C(=O)O)cc1Cl (configuration not stated)	–	inactive: 8.04%
CC(=O)N1CCC2(CC1)CC(=O)c1cc(OCC(=O)N3CCOCC3)ccc1O2	inconclusive [activator, partial curve]	–
COc1ccc2c(c1OC)c(=O)n1c3ccc(OC(C)C(=O)NCCCN4CCOCC4)cc3c3ccnc2c31 (configuration not stated)	inconclusive [activator, partial curve]	–
CCCOc1ccccc1C1C(C(=O)OC)=CN(C(C)C)C=C1C(=O)OC	inconclusive [activator, partial curve]	–
C=C(C)COc1ccc(-c2[nH]ncc2Oc2ccc(OC)cc2)c(O)c1	inconclusive [activator, single point]	–
CCOc1cc(/C=C\c2nc(O)c([N+](=O)[O-])c(=O)[nH]2)ccc1OC(C)C	–	inactive: -23.8%
N=c1c2c(-c3ccccc3)c(-c3ccccc3)n(Cc3ccccc3)c2ncn1CCCn1ccnc1	active: 2.24 µM	–
O=S(=O)(c1ccc(OCC(O)CNC23CC4CC(CC(C4)C2)C3)c(Cl)c1)N1CCOCC1 (configuration not stated)	inconclusive [inhibitor, partial curve]	–
COc1ccc2cc(C#N)c(=O)oc2c1	–	inactive: 13.9%
O=C(Nc1cc(C(F)(F)F)ccc1-n1cncn1)c1ccc(-c2ccccc2)cc1	–	inconclusive: 34.2% [activator]
COc1ccc(-c2ccc(-c3noc(C(C)C)n3)c(OC)n2)cc1	–	inactive: -5.79%
CCCNC(=O)/C=C/c1ccc(C(C)C)cc1	–	inactive: 3.57%
Cc1ccc(Cc2cnc(NC(=O)c3ccco3)s2)cc1	inconclusive [activator, single point]	–
CC(C)(C)NC(=S)Nc1ccc(Br)cc1	–	inactive: 6.77%
CCCCCNc1nc2ccccc2nc1NS(=O)(=O)c1cccs1	inconclusive [activator, partial curve, poor fit]	–
CCCCCCNC(=O)N[C@H](C(=O)NCCC[C@H]1CN2C(=NC[C@H]2C)N1CCC(c1ccccc1)c1ccccc1)C(C)O (some centres not stated)	–	inactive: -18.4%
CC1=CCC2C(=O)N(Cc3ccccc3)C(=O)C2C1 (configuration not stated)	inconclusive [inhibitor, single point]	–
C/C(=N/NC(=O)c1ccncc1)c1cc2ccc(O)cc2oc1=O	inconclusive [activator, single point]	–
N#Cc1c(-c2ccco2)cc(-c2ccccc2)[nH]c1=O	inconclusive [activator, single point]	–
CCc1cccc(CC)c1NC(=O)C(CC)Sc1nc2ccncc2[nH]1 (configuration not stated)	inconclusive [inhibitor, partial curve]	–
Cc1ccc(S(=O)(=O)/N=C2/NC(=O)/C(=C/c3ccccc3)S2)cc1	inconclusive [activator, partial curve]	–
CCOC(=O)c1ccc(COC(=O)c2ccc3c(c2)-c2ccccc2C3=O)cc1	–	inactive: 1.37%

Compound	Potency	activity change, negative = inhibition
c1ccc2c(c1)[nH]c1c(N3CCN(C4CCCCC4)CC3)ncnc12	–	inactive: 4.41%
COC(=O)C1=C(C)N(Cc2ccccc2)C(=NCc2cc(OC)c(OC)c(OC)c2)N[C@H]1CCc1ccccc1	inconclusive [inhibitor, single point]	–
Cc1ccn2c(NC3CCCC3)c(-c3cccs3)nc2c1	–	inactive: -5.86%
c1ccc(-c2nnc(N3CCCC3)nc2-c2ccccc2)cc1	inconclusive [activator, single point]	–
Cc1cccc(-c2cccc(-c3cc(=O)oc4cc5c(cc34)OCO5)c2)c1	inconclusive [activator, single point]	–
CN(CCOc1ccccc1)c1ccc(S(=O)(=O)N2CCCCC2)cn1	inconclusive [activator, partial curve]	–
CC1(C)Cc2nc(N3CCCC3)c(C#N)cc2CO1	inconclusive [activator, partial curve]	–
CC(NC(=O)COC(=O)c1cc2ccccc2cc1O)c1ccccc1 (configuration not stated)	inconclusive [inhibitor, full curve, poor fit]	–
O=C(O)c1ccc(-n2cccc2/C=C2/SC(=O)N(CC(=O)N3CCCC3)C2=O)cc1	inconclusive [inhibitor, single point]	–
NC(=O)c1cccnc1Oc1ccc(Cl)cc1Cl	–	inactive: 5.68%
CSc1oc(-c2ccccc2)nc1S(=O)(=O)c1ccc(C)cc1	inconclusive [activator, single point]	–
CN(Cc1ccon1)Cc1cn[nH]c1-c1ccc(-c2ccccc2)cc1	inconclusive [inhibitor, partial curve]	–
C#C[C@]1(O)CC[C@H]2C3CCC4=Cc5oncc5CC4(C)C3CCC21C (some centres not stated)	–	inactive: 1.84%
O=c1[nH]c(N/N=C/c2ccc(O)cc2)nc2ccccc12	inconclusive [activator, partial curve]	–
Cc1ccc(Nc2nc(N)c([N+](=O)[O-])c(N3CCC(C)CC3)n2)cc1C	–	inactive: 17.5%
Cc1ccc2nc(N(CCCN(C)C)C(=O)c3ccc(Br)s3)sc2c1	inconclusive [inhibitor, single point]	–
CCC(C)[C@H](NC(=O)N1CC(=O)Nc2ccccc21)C(=O)N1CCC[C@@H]1C(=O)O (some centres not stated)	inconclusive [inhibitor, full curve, poor fit]	–
O=C(c1cnn2c(C(F)F)cc(-c3ccccc3)nc12)N1CCc2ccccc21	inconclusive [activator, full curve, poor fit]	–
COc1cccc(-c2nccc(NCc3ccccc3OC)n2)c1	inconclusive [inhibitor, partial curve]	–
CCOC(=O)c1c(-c2ccc(C)cc2C)csc1NC(=O)CSc1nnnn1C	inconclusive [activator, single point]	–
COc1ccccc1CNc1ccnc(-c2ccccc2Cl)n1	inconclusive [inhibitor, partial curve]	–
